Hit rate of the full screen: of about 310,000 compounds, about 2,200 (0.71%) showed an effect of 50% or more. The effect is printed as a negative number. The list shows a part of the results.

This is an account of results in paper PMC4336329 (PLoS ONE, 2015).

The assay deals with human ether-à-go-go-related gene (hERG) potassium channel (human, UniProt Q12809). Description: primary screen, population patch clamp on CHO cells stably expressing hERG.
Chain of human ether-à-go-go-related gene (hERG) potassium channel (Q12809 whole entry, looked up): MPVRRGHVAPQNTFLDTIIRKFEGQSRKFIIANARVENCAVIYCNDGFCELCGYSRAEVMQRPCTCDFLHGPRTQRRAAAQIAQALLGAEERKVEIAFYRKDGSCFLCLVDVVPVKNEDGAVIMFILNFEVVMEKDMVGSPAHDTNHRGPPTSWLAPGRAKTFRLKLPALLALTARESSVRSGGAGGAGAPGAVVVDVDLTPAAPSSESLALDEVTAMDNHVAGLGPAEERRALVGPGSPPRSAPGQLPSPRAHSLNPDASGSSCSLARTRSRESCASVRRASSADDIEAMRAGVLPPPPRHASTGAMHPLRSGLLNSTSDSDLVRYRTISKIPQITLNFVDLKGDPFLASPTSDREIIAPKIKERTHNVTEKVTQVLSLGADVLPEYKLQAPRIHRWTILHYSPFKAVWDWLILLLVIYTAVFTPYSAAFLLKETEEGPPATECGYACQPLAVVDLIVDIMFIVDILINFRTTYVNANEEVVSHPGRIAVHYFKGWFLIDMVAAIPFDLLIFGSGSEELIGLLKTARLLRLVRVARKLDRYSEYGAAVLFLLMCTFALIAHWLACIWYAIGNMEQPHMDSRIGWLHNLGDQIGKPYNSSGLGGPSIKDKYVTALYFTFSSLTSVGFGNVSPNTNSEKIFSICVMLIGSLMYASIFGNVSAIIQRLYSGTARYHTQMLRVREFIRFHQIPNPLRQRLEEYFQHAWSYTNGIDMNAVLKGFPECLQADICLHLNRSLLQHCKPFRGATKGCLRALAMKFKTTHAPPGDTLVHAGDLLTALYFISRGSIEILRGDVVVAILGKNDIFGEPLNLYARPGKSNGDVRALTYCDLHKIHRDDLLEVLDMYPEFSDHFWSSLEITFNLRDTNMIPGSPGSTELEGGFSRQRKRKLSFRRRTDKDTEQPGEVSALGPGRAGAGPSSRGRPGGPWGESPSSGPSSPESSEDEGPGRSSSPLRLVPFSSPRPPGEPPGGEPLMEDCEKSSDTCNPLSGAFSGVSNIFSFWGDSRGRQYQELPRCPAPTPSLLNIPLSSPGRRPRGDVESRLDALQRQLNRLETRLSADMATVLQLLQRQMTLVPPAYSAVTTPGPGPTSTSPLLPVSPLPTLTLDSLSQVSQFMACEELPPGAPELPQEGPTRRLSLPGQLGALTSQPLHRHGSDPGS
For the molecule `COc1cccc(-c2nnc(-c3ccc(C(F)(F)F)cc3)o2)c1`, the “hERG current change (%, negative = inhibition) at 1uM” value came to 4.96%.
As for `Cn1nc(-c2ccccc2)cc1NC(=O)Nc1ccc(F)cc1`, the figure is 16.4%; as for `CC(=O)N1c2ccc(S(=O)(=O)NCCc3ccc(S(N)(=O)=O)cc3)cc2CC1C` (stereo not drawn), 17.6%; as for `Cc1cc(C)c(C#N)c(SCc2ccc([N+](=O)[O-])cc2)n1`, 13%.
As for `CN1/C(=C\C=N\NC(=O)c2ccccc2Br)C(C)(C)c2ccccc21`, the figure is 9.05%; as for `COc1ccc(Cl)cc1C(=O)O/N=C(\N)c1ccc(Cl)cc1`, 1.24%; as for `O=C(Nc1ccccc1)OC1CCS(=O)(=O)C1` (stereo not drawn), 13.2%.
Consider `Cc1ccc(S(=O)(=O)Nc2cccc(C(=O)N3CCOCC3)c2)c(C)c1NS(C)(=O)=O`, for which the “hERG current change (%, negative = inhibition) at 1uM” value turned out to be 19.5%.
As for `CC(/C=N/NC(=O)c1ccc(Cn2cc([N+](=O)[O-])cn2)o1)=C\c1ccccc1`, the figure is 4.13%.
Consider `Cc1ccc(S(=O)(=O)N2CCN(Cc3ccccc3)CC2)s1`, for which the “hERG current change (%, negative = inhibition) at 1uM” value turned out to be 8.25%.
`Cc1ccnc(NC(=O)c2cccc(S(=O)(=O)N3CCCC3)c2)c1`: the “hERG current change (%, negative = inhibition) at 1uM” value stood at 9.19%.
As for `Cc1cccc(-n2c(SCC(=O)NCc3ccco3)nc3ccccc3c2=O)c1`, the “hERG current change (%, negative = inhibition) at 1uM” value is -9.79%.
The result for `Nc1c(Br)cc(Br)c(N2CCCC2=O)c1Br` reads 6.06%; that for `CC(CCc1ccccc1)NC(=O)CCC(=O)N1CCC(C(=O)O)CC1` (stereo not drawn), 16%; that for `CC(=O)c1cn(C)c(=O)n(C)c1=O`, 4.54%.
As to `Cc1cc(N2C(=O)CC(C(C)c3ccccc3)C2=O)no1` (stereo not drawn), the “hERG current change (%, negative = inhibition) at 1uM” value is on record as 6.37%.
As to `O=C(CCc1ccccc1)NCC1(c2ccccc2)CCCC1`, the “hERG current change (%, negative = inhibition) at 1uM” value is on record as 11.5%.
Consider `O=C(CSc1nccn1-c1ccc(Cl)cc1)NCc1ccc2c(c1)OCO2`, for which the “hERG current change (%, negative = inhibition) at 1uM” value is on record as -3.09%.
The result for `COc1ccccc1N1CCN(C(c2cccs2)C(C)NC(=O)c2cccnc2)CC1` (stereo not drawn) reads -2.84%.
Regarding `CC(=O)Nc1ccc(S(=O)(=O)C(C#N)c2nc3ccccc3nc2NCCCO)cc1` (stereo not drawn), the “hERG current change (%, negative = inhibition) at 1uM” value was 0.636%.
With `Cl.O=C(NCC(c1cccs1)N1CCOCC1)c1cc2ccccc2o1` (stereo not drawn), the “hERG current change (%, negative = inhibition) at 1uM” value was -1.18%.
Take `COc1cc2c(cc1OC)CN(CC(=O)Nc1ccc(F)cc1)C(C(=O)O)C2` (stereo not drawn): the “hERG current change (%, negative = inhibition) at 1uM” value was 12.8%.
On to `COC(=O)[C@H](C)NC(=O)Nc1ccc(S(N)(=O)=O)cc1`, for which the “hERG current change (%, negative = inhibition) at 1uM” value was 12.6%.
`CCN(CC)CCN1C(=O)C(=O)/C(=C(/O)c2cnn(-c3ccccc3)c2C)C1c1cccnc1` (stereo not drawn): the “hERG current change (%, negative = inhibition) at 1uM” value was found to be 19.7%.
As to `CC(C)OC(=O)c1ccc(NC(=O)c2cncc(Br)c2)cc1`, the “hERG current change (%, negative = inhibition) at 1uM” value is given as -0.654%.
Turning to `COc1ccc(S(=O)(=O)N(n2c(C)nnc2-n2nc(C)cc2C)S(=O)(=O)c2ccc(OC)cc2)cc1`, the “hERG current change (%, negative = inhibition) at 1uM” value is reported as 18.6%.
With `CCCCn1nnnc1NCc1cccnc1`, the “hERG current change (%, negative = inhibition) at 1uM” value came out at 5.42%.
For `COC(=O)c1cc(S(=O)(=O)NC2CCN(Cc3ccccc3)CC2)cn1C`, the “hERG current change (%, negative = inhibition) at 1uM” value is given as 11.2%.
For `Cc1cc(C(=O)OCC(=O)NCc2ccc(F)cc2)c2ccccc2n1`, the “hERG current change (%, negative = inhibition) at 1uM” value is 6.51%.
Regarding `FC(F)(F)C(F)(F)c1nnc2ccc(-n3ccnc3)nn12`, the “hERG current change (%, negative = inhibition) at 1uM” value came out at 3.17%.
`CN(C)/C=C/C(=O)c1nn(-c2ccc(F)cc2)ccc1=O`: the “hERG current change (%, negative = inhibition) at 1uM” value came to 10.8%.
`COc1ccccc1NS(=O)(=O)c1cc(C(=O)NCC2CCCO2)ccc1C` (stereo not drawn): the “hERG current change (%, negative = inhibition) at 1uM” value was -6.88%.
Regarding `COc1cccc(/C=C2\CCC(C3CCCC3)C2=O)c1OC` (stereo not drawn), the “hERG current change (%, negative = inhibition) at 1uM” value came out at 14.5%.
Regarding `COc1ccc(N(C(=O)c2ccco2)C(C(=O)NC2CCCC2)c2ccc(N3CCOCC3)cc2)c(OC)c1` (stereo not drawn), the “hERG current change (%, negative = inhibition) at 1uM” value is recorded as 0.946%.
On to `CCOc1ccc(-n2c(=S)sc3c(=O)n(-c4ccccc4)c(SCC(=O)O)nc32)cc1`, for which the “hERG current change (%, negative = inhibition) at 1uM” value is reported as 12.2%.
Regarding `Oc1ccccc1/C=N/n1cnn(Cc2ccccc2Cl)c1=S`, the “hERG current change (%, negative = inhibition) at 1uM” value stood at 10.8%.
As to `C=CCNC(=O)c1onc(CSc2ccc(F)c(F)c2)c1C(=O)NCC=C`, the “hERG current change (%, negative = inhibition) at 1uM” value was 1.57%.
The result for `CC(C)c1nc2n[nH]c(N)c2c2c1CCCC2` reads 11.4%.
As to `Cc1cc(=O)oc2cc(NC(=O)Cc3ccccc3)ccc12`, the “hERG current change (%, negative = inhibition) at 1uM” value is 15.3%.
For `CSc1nc2ccc(NC(=O)c3ccc(=O)n(C)n3)cc2s1`, the “hERG current change (%, negative = inhibition) at 1uM” value stood at 11.6%.
Turning to `O=C(CCc1nc2sc3c(c2c(=O)[nH]1)CCCC3)NCCOc1ccccc1`, the “hERG current change (%, negative = inhibition) at 1uM” value is listed as -0.368%.
`COCCNC(=O)CN(C(=O)CCC(=O)Nc1ccccn1)c1ccccc1OC`: the “hERG current change (%, negative = inhibition) at 1uM” value worked out at 9.94%.
As for `N#Cc1c(N)nc2c(c1-c1cccnc1)CCCCC2`, the figure is -4.85%; as for `Cc1ccc(Sc2ncccc2COC(=O)Nc2ccccc2)cc1`, 11.7%.
The result for `Cc1ccc(-n2c(O)c(C=NC3CCCC3)c(=O)[nH]c2=O)c(C)c1` reads 15.2%.
As for `O=C(c1ccc(Cn2cnnn2)cc1)N1CCCC(Nc2ccc(F)cc2)C1` (stereo not drawn), the “hERG current change (%, negative = inhibition) at 1uM” value was determined as 3.86%.
Take `CCc1ccc(N2C(=O)c3ccc4c5c(ccc(c35)C2=O)CC4)cc1`: the “hERG current change (%, negative = inhibition) at 1uM” value is -1.11%.
With `COc1ccc(NC(=O)CSc2nnc(Cn3c(=O)sc4ccccc43)n2C)cc1`, the “hERG current change (%, negative = inhibition) at 1uM” value amounted to 0.985%.
For `COc1ccccc1S(=O)(=O)Cc1ccc(C(=O)NCc2cccnc2)o1`, the “hERG current change (%, negative = inhibition) at 1uM” value came out at 6.11%.
Take `O=C(NC(=S)Nc1ccccn1)c1ccccc1`: the “hERG current change (%, negative = inhibition) at 1uM” value came out at 12.8%.
As for `Cc1cccc(C(=O)Nc2ccc(C(=O)N/N=C/c3ccco3)cc2)c1`, the figure is 7.52%; as for `Cc1cc(C(=O)NCC(=O)OCC(=O)Nc2ccc(OC(F)F)cc2)ccc1[N+](=O)[O-]`, -19.9%.
Turning to `Br.COc1ccccc1N1CCN(CCCCN2C(=O)c3ccccc3C2=O)CC1`, the “hERG current change (%, negative = inhibition) at 1uM” value is -26.7%.
As for `C=CCNC(=O)C1CC(=O)N(c2ccc(OCc3ccccc3Cl)cc2)C1` (stereo not drawn), the “hERG current change (%, negative = inhibition) at 1uM” value is 13.4%.
Turning to `COc1ccc([N+](=O)[O-])cc1NS(=O)(=O)c1cccc(C(=O)O)c1`, the “hERG current change (%, negative = inhibition) at 1uM” value came out at 13.8%.
Take `COc1ccc(OC)c(NC(=O)Nc2cccnc2)c1`: the “hERG current change (%, negative = inhibition) at 1uM” value came out at 13.6%.
Consider `FC(F)(F)c1ccnc(Oc2ccc(C3=NCCS3)cc2)c1`, for which the “hERG current change (%, negative = inhibition) at 1uM” value stood at 13.4%.
Regarding `O=C(CSc1nnc(-c2cccnc2)o1)Nc1cccc(Cl)c1`, the “hERG current change (%, negative = inhibition) at 1uM” value is listed as 14.4%.
As to `Oc1ccc(N=Nc2ccc3ccccc3c2)cc1`, the “hERG current change (%, negative = inhibition) at 1uM” value came out at 15.3%.
Regarding `O=C1CCC(C(=O)N2CCN(c3ccccc3Cl)CC2)CN1CC1CCCCC1` (stereo not drawn), the “hERG current change (%, negative = inhibition) at 1uM” value is reported as 7.35%.
In the case of `CC1CC(CC(=O)Nc2nc(-c3ccccc3)cs2)C(=O)O1` (stereo not drawn), the “hERG current change (%, negative = inhibition) at 1uM” value was found to be 16.1%.
With `[O-][n+]1c2c(c3c4non(O)c4ccc31)CCCC2`, the “hERG current change (%, negative = inhibition) at 1uM” value amounted to 12.6%.
Take `Cc1ccc(S(=O)(=O)N2CCCC2C(=O)N2CCCCCC2)cc1` (stereo not drawn): the “hERG current change (%, negative = inhibition) at 1uM” value is listed as -7.28%.
For the molecule `Cc1ccc(C)c2sc(NC(=O)c3ccc(N4CCCCC4)c([N+](=O)[O-])c3)nc12`, the “hERG current change (%, negative = inhibition) at 1uM” value amounted to 12.4%.
As to `COc1cc(CNC2CCCCCCC2)cc(Cl)c1OC.Cl`, the “hERG current change (%, negative = inhibition) at 1uM” value was found to be 12.6%.
Consider `O=S(=O)(c1ccccc1)c1nc(-c2ccccc2)oc1N1CCCC1`, for which the “hERG current change (%, negative = inhibition) at 1uM” value is on record as 1.47%.
As to `Cc1cnccc1CN(C)C(=O)CC1C(=O)NCCN1CC1CCCCC1` (stereo not drawn), the “hERG current change (%, negative = inhibition) at 1uM” value worked out at 4.81%.
The result for `CC(C)c1ccc2[nH]c3c(c2c1)CCCC3=O` reads 6.51%.
On to `COc1ccc(C(C(=O)NC(C)(C)C)N(CCO)C(=O)CCC(=O)Nc2cc(C)on2)cc1` (stereo not drawn), for which the “hERG current change (%, negative = inhibition) at 1uM” value was 13.6%.
As for `Cc1nnc(N2CCCC(C(=O)NCc3cccc(F)c3)C2)c2nn(-c3ccccc3)c(C)c12` (stereo not drawn), the figure is -1.8%.
As to `Cc1cc(NC(=O)CSc2nc3ccccc3c(=O)n2-c2ccccc2)no1`, the “hERG current change (%, negative = inhibition) at 1uM” value turned out to be 4.19%.
In the case of `Cc1ccccc1-n1c(=O)c2ccccc2n2cnnc12`, the “hERG current change (%, negative = inhibition) at 1uM” value is given as -6.44%.
Take `Cc1ccc(S(=O)(=O)N2CCC(C(=O)N3CCC[C@H]3C(=O)NCc3ccco3)CC2)cc1`: the “hERG current change (%, negative = inhibition) at 1uM” value is listed as -5.93%.
Take `CCc1ccc(C(=O)NN=C2CCCCCC2)s1`: the “hERG current change (%, negative = inhibition) at 1uM” value came out at 14.8%.
Take `CCN1C(=O)[C@@H]2[C@@H](c3ccc(-c4ccc(OC)cc4)cc3)N3CCC[C@@]3(C(=O)OC)[C@@H]2C1=O.O=C(O)C(F)(F)F`: the “hERG current change (%, negative = inhibition) at 1uM” value was 4.57%.
For `CCOC(=O)N1CCC(NC(=O)c2ccc(Cl)cc2)CC1`, the “hERG current change (%, negative = inhibition) at 1uM” value is reported as 9.62%.
As for `Cc1ccc(C2C3=C(CCCC3=O)OC3=C2C(=O)CCC3)cc1`, the figure is 0.776%; as for `COc1ccc(CCNC(=O)c2cc(=O)[nH]c3ccc(Br)cc23)cc1OC`, 16.1%; as for `CCc1nc2ccccc2c(C(=O)OCC(=O)Nc2cccc(S(=O)(=O)N3CCOCC3)c2)c1C`, 7.53%.
The result for `O=C(c1ccc(F)cc1)N1CCN2C(=O)c3ccccc3C12c1ccccc1` (stereo not drawn) reads 14.1%.
In the case of `COc1ccc(OCC(=O)N/N=C2/C=C(C)CC2)cc1`, the “hERG current change (%, negative = inhibition) at 1uM” value stood at 8.3%.
In the case of `CC1=NN(c2ccc(C)c(C)c2)C(=O)/C1=C/c1ccc2c(c1)n(C)c(=O)n2C`, the “hERG current change (%, negative = inhibition) at 1uM” value is recorded as 2.22%.
`CC(C)OCCCNC(=O)c1ccc(C2SCC(=O)N2Cc2ccco2)cc1` (stereo not drawn): the “hERG current change (%, negative = inhibition) at 1uM” value was 4.31%.
The result for `N=C1/C(=C/c2cccn2-c2ccc([N+](=O)[O-])cc2)C(=O)N=C2SC=CN12` reads 4%; that for `Cc1cccc2c1-c1sc(C(=O)Nc3cccc([N+](=O)[O-])c3C)cc1CO2`, 3.86%; that for `O=C(CSc1ccccn1)Nc1cccc([N+](=O)[O-])c1`, 11.1%.
As for `CC(C)c1nnc(NC(=O)CCC(=O)NC2CCCCC2)s1`, the “hERG current change (%, negative = inhibition) at 1uM” value is reported as 7.26%.
